The source of these data is ChEMBL document CHEMBL1201862, “PubChem BioAssay data set” (2004).

Molecules are shown by their SMILES.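 The compound was tested at five concentrations on cells cultured in 96-well plates, with a 48-hour exposure period. GI50: concentration for 50% inhibition of growth.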 The source made the active and inactive calls. Cut-off read from the data, not from the text of the source: active = GI50 up to about 1.1 µM and inactive = higher.

The assay has as its system NCI-H322M. The assay can be described thus: NCI anticancer screen, dose series, 48 h.
Regarding `Oc1cc(-c2ccccn2)nc2cc(F)ccc12`, the GI50 was inactive: > 100 µM. For the compound `N#Cc1cc(-c2nc3c(F)cccc3s2)ccc1N`, the GI50 was inactive: 4.68 µM. The same measure for `CCn1c(CCCc2nc3c(=O)n(C)c(=O)n(C)c3[nH]2)nc2c1c(=O)n(C)c(=O)n2C`: inactive: > 100 µM; for `N#Cc1c(N)[nH]c2ccc(Sc3ccccc3)cc12`: active: 0.573 µM; for `O=C(NCCN1CCCC1)c1cn2c(ccc3sc4ccccc4c(=O)c32)n1`: inactive: 6.18 µM.

As for `COc1cccc(C2c3cc4c(cc3OC(NNC(N)=O)C2C)OCO4)c1O` (centres undefined), the GI50 was inactive: 2.78 µM.

For the compound `C=CCN1C(=O)/C(=C/c2ccc(OC)cc2)N=C1SC/C=C/C`, the GI50 is inactive: > 100 µM. Under `Cc1cn2cc(-c3cccs3)nc2s1` stands inactive: > 49.7 µM; under `O=P1(O)c2ccccc2Nc2cc(C(F)(F)F)ccc21`, inactive: > 100 µM; under `CN(C)/C=N/S(=O)(=O)c1nn2c(C=O)c(-c3ccc(-c4ccccc4)cc3)nc2s1`, inactive: 9.89 µM.

With `C=CC1C2=C(C(=O)NCC2)C2OC(O)C3=C(CCNC3=O)C2C1C` (centres undefined), the GI50 is inactive: > 100 µM. Under `Cc1cc(Br)ccc1/N=N/c1c(C)nn(-c2ccccc2)c1-c1ccccc1` stands inactive: > 100 µM; under `CCn1c(=O)c2c3ccc(OC(C)=O)cc3[nH]c2c2ccc(OC(C)=O)cc21`, inactive: 26.2 µM; under `OCC(O)C(OC1OC(CO)C(O)C(O)C1O)c1nn(-c2ccc(F)cc2)c2nc3cc(Cl)c(Cl)cc3cc12` (centres undefined), inactive: > 100 µM. Regarding `O=C1Cc2ccccc2CCc2ccsc21`, the GI50 is inactive: > 100 µM.

Regarding `COC(=O)C(Cc1ccccc1)OC(=O)C(N)CC(=O)O` (centres undefined), the GI50 is inactive: > 100 µM.

Consider `COc1cc(C2SCC(=O)N2NC(=O)c2ccc(NC(C)=O)cc2OC)ccc1O` (centres undefined), for which the GI50 was inactive: > 100 µM. The same measure for `CC(C)(C)/C(O)=C\c1nc2cc(F)c(F)cc2[nH]c1=O`: inactive: > 100 µM; for `O=S(=O)(N=S(c1ccc(Cl)cc1)c1ccc(Cl)cc1)c1ccccc1`: inactive: > 100 µM; for `CN1Cc2c(nc(-c3ccc(Br)cc3)c[n+]2[O-])N(C)C1`: inactive: > 100 µM.

Regarding `CC(C)(C)c1cc(C2NC(=O)NC2=O)cc(C(C)(C)C)c1O` (centres undefined), the GI50 is inactive: > 100 µM.

In the case of `N#Cc1cc2c(cc1C#N)SCCSCCCSCCS2`, the GI50 was inactive: 31.5 µM. The same measure for `COc1cc(-c2[nH]ccc2Cl)oc1C1=C2N=C3C=C2C(C(C)C)C1CCCCCCCC3` (centres undefined): active: 0.971 µM; for `COC(=O)N[C@@H]1C[C@H]2CC[C@]1(O[Si](C(C)C)(C(C)C)C(C)C)C(=O)C2`: inactive: 14.8 µM; for `c1ccc2c(c1)nc1n2C2CCC(C2)N1` (centres undefined): inactive: > 10 µM. The same measure for `O=C1Nc2ccccc2/C1=N/Nc1c(F)c(F)c(F)c(F)c1F`: inactive: > 100 µM; for `O=[N+]([O-])c1ccc(NSc2ccccc2)cc1`: inactive: 70.1 µM. Under `COc1cc(C(=O)C/C(CCC(=O)Nc2ccccc2[N+](=O)[O-])=N\NC(=O)C(N)=O)ccc1O` stands inactive: > 100 µM. As to `Cn1cncc1CC1COC(=O)C1C(O)c1ccccc1` (centres undefined), the GI50 was inactive: > 100 µM. The same measure for `COc1ccc(/C=C/C(=O)CCN2CCN(CCC(=O)/C=C/c3ccc(OC)cc3)CC2)cc1`: inactive: 26 µM; for `O=C(N(C1=CCCC1)N(c1ccccc1)c1ccccc1)C(F)(F)F`: inactive: 21.7 µM; for `CC(OC(C)(C)C)[C@H](NC(=O)OCc1ccccc1)C(=O)NC(OCc1ccccc1)[C@H]1COC(C)(C)O1` (some centres undefined): inactive: > 10 µM. Under `C=CCNC(=O)NC1=CSC2=NC(=O)C3(NN12)c1ccccc1-c1ccccc13` stands inactive: > 10 µM. For the compound `N=C(N)NC(=N)Nc1c(F)c(F)c(F)c(F)c1F`, the GI50 is inactive: > 100 µM. For the compound `O=P1(c2ccccc2)CCCCC1`, the GI50 is inactive: > 100 µM. The same measure for `COc1ccc(C2c3cc4c(cc3C(O)C3CCC(=O)N23)OCO4)cc1` (centres undefined): inactive: > 100 µM; for `N#CC1C2CCC3(CC2CCN1C(=O)c1ccccc1)OCCO3` (centres undefined): inactive: > 100 µM. The same measure for `Cc1c2c(c(C)n1-c1ccccc1)C(=O)N(CCSC(=N)N)C2=O`: inactive: > 100 µM.

On to `Cc1ccccc1/N=C/c1ccc(N(CCC#N)S(=O)(=O)c2ccccc2)cc1`, for which the GI50 is inactive: > 100 µM.

For `C/C1=C/C(C)CC(C)OC(=O)C(C)NC(=O)C(Cc2ccc(O)c(I)c2)N(C)C(=O)C(C)NC(=O)C(C)C1` (centres undefined), the GI50 is inactive: 1.9 µM. The same measure for `Cc1ncc(-c2nnnn2-c2ccccc2)c(C(=O)O)n1`: inactive: > 100 µM; for `N#CCC1(c2ccc(Cl)cc2)NC(=O)c2ccccc21` (centres undefined): inactive: > 100 µM; for `CCOC(=O)C(NC(=O)CC(C)C)(NC(C)C)C(F)(F)F` (centres undefined): inactive: > 100 µM. `Cc1cc(C[C@H]2O[C@@H]3OC(C)(C)O[C@@H]3[C@H]3OC(C)(C)O[C@H]32)c2ccccc2n1`: the GI50 is inactive: > 100 µM. Take `C/C(=N\N=C(\N)SB(F)F)c1ccc2ccccc2c1`: the GI50 is inactive: > 100 µM.

Take `COc1cccc([C@@H]2C/C(=N\NC(=O)C(=O)N[C@@H](C)c3ccccc3)c3ccccc3N2)c1`: the GI50 is inactive: > 100 µM. Under `COc1cc(/C=C2\CCC/C(=C\c3ccc(OC(=O)CCCCC4CCSS4)c(OC)c3)C2=O)ccc1OC(=O)CCCCC1CCSS1` (centres undefined) stands inactive: > 100 µM; under `C=C(C)C(=O)O[C@H]1C/C(CO)=C/CCC(=C)C(OC(C)=O)[C@H]2OC(=O)C(=C)[C@H]12` (some centres undefined), inactive: 31.3 µM.

`COC(=O)c1ccccc1N(C(=O)c1ccccc1)c1ccccc1C`: the GI50 was inactive: 59.3 µM. Under `CC[C@@]1(O)C(=O)OCc2c1cc1n(c2=O)Cc2c-1nc1ccccc1c2/C=N\NC(=O)C1CCCN1` (some centres undefined) stands inactive: 6.64 µM; under `N#Cc1ccc(Oc2cccc(Oc3ccccc3)c2)cc1C#N`, inactive: > 10 µM; under `COC(=O)C(=O)C(C(=O)C=C(C)C)C(=O)C(=O)Nc1cc(C(F)(F)F)ccc1Cl` (centres undefined), inactive: > 100 µM. The same measure for `COc1ccc(C(=O)/C=C2\c3ccccc3C(=O)N2C)cc1`: inactive: 49.3 µM; for `CCN(CC)c1c(C(C)(C)C)c(=O)n2ccsc2c1OC(C)=O`: inactive: 17.9 µM; for `N#Cc1c(N)nc(-c2ccc(Cl)cc2)c2c1-c1ccccc1S(=O)(=O)CC2`: inactive: > 100 µM. Regarding `C1C2CC3CC1CC(Nc1nc(NC45CC6CC(CC(C6)C4)C5)nc(NC45CC6CC(CC(C6)C4)C5)n1)(C2)C3`, the GI50 was inactive: 21.9 µM. The same measure for `CC(C)C(Sc1nc(-c2ccccc2)c(-c2ccccc2)[nH]1)c1n[nH]c(=S)n1-c1ccccc1` (centres undefined): inactive: 46.7 µM; for `C[C@@H]1CCC2[C@@H](C)[C@@H](OCCO[C@H]3OC4O[C@@]5(C)CCC6[C@H](C)CCC([C@H]3C)[C@@]46OO5)OC3O[C@@]4(C)CCC1[C@]32OO4` (some centres undefined): inactive: > 100 µM; for `Cc1ccc2c(c1)C(=O)/C(=C\c1ccccc1)CCS2(=O)=O`: inactive: 13.5 µM. The same measure for `CCOC(=O)Cn1nnc2ccc(Nc3nc4ccccc4nc3C(=O)OCC)cc21`: inactive: > 100 µM; for `COC(=O)C1=C(C(=O)OC)C2(CCCCCC2=O)OC1=O` (centres undefined): inactive: > 100 µM; for `CC(=O)N1c2ccccc2C2=NN(C)C(=N)SC21` (centres undefined): inactive: 88.1 µM. Under `Cc1nc(N)sc1/N=N/c1ccccc1Br` stands inactive: 39.6 µM; under `Cc1cc(N)c(C)c2c1[nH]c1ccc(O)cc12`, inactive: > 100 µM. For the compound `CC(Oc1ccc(Cl)cc1Cl)C(=O)NN1C(=O)CSC1c1ccccc1` (centres undefined), the GI50 was inactive: 55.8 µM. `CCOC(=O)NC(Nc1ccc(S(=O)(=O)Nc2ncccn2)cc1)(C(=O)OCC)C(F)(F)F` (centres undefined): the GI50 was inactive: > 100 µM. Under `Nc1nc(Cl)c(CO)c(NCC2(CO)CC(CCc3ccccc3)C2)n1` (centres undefined) stands inactive: 24.7 µM. For the compound `Cc1nc2c(=S)n(C)ncc2[nH]1`, the GI50 is inactive: > 100 µM. The same measure for `CCOC(=O)C1(C)CCCCC(=O)N1` (centres undefined): inactive: > 100 µM; for `Cc1ccc2c3ccc4c(c3n(C)c2c1)C(=O)C=CC4=O`: inactive: > 10 µM; for `CN1C2CC(=O)CC1[C@H](O)[C@@H]2O`: inactive: > 100 µM. Under `Cc1cc(C(=O)NCCN(C)C)c2nc3ccccc3cc2c1` stands inactive: 2.13 µM; under `COC(=O)CCC(=O)CC(=O)C(=O)Nc1c(Cl)cc([N+](=O)[O-])cc1Cl`, inactive: > 100 µM. The same measure for `Cc1cc(C)c2nccc(NCCCN(C)C)c2c1[N+](=O)[O-]`: inactive: 39.4 µM. For the compound `Cc1ccc(N2CCC3(CC2)OCCO3)cc1`, the GI50 was inactive: > 100 µM.

For the compound `O=C(NC1CC1)c1c(O)[nH]c(=S)[nH]c1=O`, the GI50 was inactive: > 100 µM.

For `CC(C)C1=CC23CCC4C(C)(C(=O)O)CCCC4(C)C2CC1C1C(=O)N(c2ccc(C(=O)O)cc2)C(=O)C13` (centres undefined), the GI50 is inactive: > 100 µM. Under `COC12c3ccccc3-c3ccccc3C1[C@@H](C(=O)O)[C@H]2C(=O)O` (some centres undefined) stands inactive: > 10 µM; under `OC1CN=C2c3ccccc3C(O)(c3ccc(Cl)cc3)N2C1` (centres undefined), inactive: > 100 µM. Under `COc1cc2c(c(OC)c1OC)-c1ccc(SC)c(=O)cc1[C@@H](NCc1ccccc1[N+](=O)[O-])CC2` stands active: 0.027 µM. With `Nc1ccc2nc(-c3cccc(Cl)c3)cc(O)c2c1`, the GI50 was inactive: 7.73 µM. The same measure for `CCN(CC)CCC(=O)/C=C/c1ccccc1`: inactive: 21.7 µM; for `N=C(N)N/N=C/c1c(Cl)nc2n1CCS2`: inactive: 24.4 µM. On to `CCNC(=O)/C(=C/c1ccc(OC)cc1)c1cc(OC)c(OC)c(OC)c1`, for which the GI50 was inactive: 27.5 µM.
